Patent publication US20240376172A1 (ILTOO PHARMA, published 2024)

Target: T1, IL-2 receptor on human whole-blood cells (regulatory T cells) (human, UniProt P01589 22-272; P14784 27-551; P31785 23-369)
T1 sequence (looked up) 1: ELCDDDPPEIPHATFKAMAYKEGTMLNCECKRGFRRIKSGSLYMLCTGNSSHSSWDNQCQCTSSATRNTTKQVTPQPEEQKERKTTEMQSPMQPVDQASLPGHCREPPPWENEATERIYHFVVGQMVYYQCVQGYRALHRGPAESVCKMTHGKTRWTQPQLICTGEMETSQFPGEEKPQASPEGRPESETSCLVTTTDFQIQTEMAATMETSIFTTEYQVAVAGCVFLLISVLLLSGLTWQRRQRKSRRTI
T1 sequence (looked up) 2: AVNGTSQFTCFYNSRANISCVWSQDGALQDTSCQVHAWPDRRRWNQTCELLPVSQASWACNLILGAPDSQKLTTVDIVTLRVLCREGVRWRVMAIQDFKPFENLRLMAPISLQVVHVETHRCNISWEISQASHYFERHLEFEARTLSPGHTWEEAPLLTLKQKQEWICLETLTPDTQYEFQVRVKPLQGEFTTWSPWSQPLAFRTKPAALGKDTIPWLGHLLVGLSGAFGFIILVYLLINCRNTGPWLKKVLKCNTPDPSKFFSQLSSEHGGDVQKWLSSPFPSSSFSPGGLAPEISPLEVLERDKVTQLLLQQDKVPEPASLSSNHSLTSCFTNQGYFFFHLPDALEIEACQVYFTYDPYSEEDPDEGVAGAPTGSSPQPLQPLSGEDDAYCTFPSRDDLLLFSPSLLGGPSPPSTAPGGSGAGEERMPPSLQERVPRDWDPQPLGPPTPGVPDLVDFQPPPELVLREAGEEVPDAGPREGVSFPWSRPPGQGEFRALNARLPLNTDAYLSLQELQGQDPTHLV
T1 sequence (looked up) 3: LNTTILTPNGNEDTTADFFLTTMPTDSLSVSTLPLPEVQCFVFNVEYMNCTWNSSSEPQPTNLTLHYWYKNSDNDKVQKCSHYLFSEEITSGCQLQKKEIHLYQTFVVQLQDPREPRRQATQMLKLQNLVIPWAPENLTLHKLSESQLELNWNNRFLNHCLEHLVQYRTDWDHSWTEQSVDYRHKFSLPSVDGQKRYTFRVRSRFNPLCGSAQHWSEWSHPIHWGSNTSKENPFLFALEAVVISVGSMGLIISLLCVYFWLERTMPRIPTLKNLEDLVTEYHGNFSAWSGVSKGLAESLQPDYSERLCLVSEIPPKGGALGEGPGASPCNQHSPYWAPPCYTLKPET
Assay: cell-based or functional assay

- pSTAT5 EC50 on regulatory T cells, human whole blood, flow cytometry: ~650 ng/mL
B1: IL-2N88R-C4bpß-scFvE06 targeted fusion protein (mutated IL-2 N88R fused to the N-terminus of C4BPß, C4BPß fused to scFvE06, with HIS tag) (other, not shown: small tags and cut ends)
chain: [about 150 residues with changes not written out]GGGGSGGGGSGGGGSIQEAPKPECEKALLAFQESKNLCEAMENFMQQLKESGMTMEELKYSLELKKAELKAKLLGGGGSGGGGSGGGGSDIVMTQSPSSLSVSAGKKVTISCTASESLYSSKHKVHYLAWYQKKPEQSPKLLIYGASNRYIGVPDRFTGSGSGTDFTLTISSVQVEDLTHYYCAQFYSYPLTFGAGTKLEIKGGGGSGGGGSGGGGSEVKLVESGGGLVQPGGSLRLSCATSGFTFSDFYMEWVRQAPGKRLEWIAASRNKANDYTTEYADSVKGRFIVSRDTSQSILYLQMNALRAEDTAIYYCARDYYGSSYWYFDVWGAGTTVTVSS
